Records with an inconclusive call do not appear. Not every entry of the source has a single result; some have several. This list holds those alone. There may be further records. The values listed for one entry repeat one measurement (runs, samples, wells, individuals or studies). Additions like (4×) say how often a value occurs here.
Test system: MX-1 breast xenograft, intrarenal, nude mice, tumor weight
Experiment: NCI In Vivo Anticancer Drug Screen. Data for tumor model Human Mammary Carcinoma MX-1 Xenograft (intrarenal inoculation) in NU/NU BALB/C (nude) mice
Details: endpoint: mean tumor weight change, higher = larger tumour
Description: The antitumor activity of compounds was measured in mice bearing transplantable tumors. Survival or tumor size were measured and the results are expressed as the measurement made in the treated group (T) divided by the measurement made in the vehicle treated control group (C). The tumor model used in this assay is Human Mammary Carcinoma MX-1 Xenograft (intrarenal inoculation) in NU/NU BALB/C (nude) mice

[1] = dose: 600.0 mg/kg/injection, schedule: Q04DX003 (ip), vehicle: saline with Tween-80
[2] = dose: 25.0 mg/kg/injection, schedule: Q04DX003 (ip), vehicle: distilled water + Tween-80
[3] = dose: 150.0 mg/kg/injection, schedule: Q04DX003 (ip), vehicle: saline with Tween-80

Q: Which results are given for `C/C=C(\C)c1cc(=O)c2c(C)cc3c(c2o1)C(=O)c1c(O)c(C2CC(C)(N(C)C)C(OC(C)=O)C(C)O2)cc(C2CC(N(C)C)C(O)C(C)O2)c1C3=O` (configuration not stated)?
A: T/C (dose: 5.0 mg/kg/injection, schedule: Q04DX003 (sc), vehicle: saline): 57 % of control, 83 % of control, 93 % of control; T/C (dose: 10.0 mg/kg/injection, schedule: Q04DX003 (sc), vehicle: saline): 24 % of control, 72 % of control, 105 % of control; T/C (dose: 20.0 mg/kg/injection, schedule: Q04DX003 (sc), vehicle: saline): 13 % of control, 63 % of control, 73 % of control

Q: How did the T/C (dose: 100.0 mg/kg/injection, schedule: Q04DX003 (ip), vehicle: saline with Tween-80) turn out when `O=C1C=CC(=CC=C2C=CN(CCCCCCCCCCCO)C=C2)C=C1` was run?
A: The T/C was 35 % of control and 122 % of control.

Q: How did the T/C [1] turn out when `Oc1ccc(/C=N/N=C/c2ccc(O)c(O)c2)cc1O` was run?
A: The T/C was 36 % of control and 103 % of control.

Q: `N[C@@H](Cc1ccc(N(CCCl)CCCl)cc1)C(=O)O` was tested. Which T/C (dose: 1.0 mg/kg/injection, schedule: Q04DX003 (ip), vehicle: saline with Tween-80) did it give?
A: The T/C was -91 % of control and 10 % of control.

Q: `O=P1(N(CCCl)CCCl)NCCCO1` (configuration not stated) was tested. Which T/C (dose: 100.0 mg/kg/injection, schedule: Q04DX003 (ip), vehicle: saline) did it give?
A: The T/C was -100 % of control and -69 % of control.

Q: Which T/C (dose: 12.0 mg/kg/injection, schedule: Q04DX003 (ip), vehicle: sodium bicarbonate) does the source give for `CN(Cc1cnc2nc(N)nc(N)c2n1)c1ccc(C(=O)N[C@@H](CCC(=O)O)C(=O)O)cc1` here?
A: The T/C was 111 % of control and 168 % of control.

Q: What about the T/C (dose: 27.0 mg/kg/injection, schedule: Q04DX003 (ip), vehicle: sodium bicarbonate) of the same compound?
A: The T/C was 16 % of control and 72 % of control.

Q: Which T/C (dose: 200.0 mg/kg/injection, schedule: Q04DX003 (ip), vehicle: saline with Tween-80) does the source give for `NC(=O)c1[nH]cnc1O` here?
A: The T/C was 69 % of control and 103 % of control.

Q: For `CO[C@@]12[C@@H]3N[C@@H]3CN1C1=C(C(=O)C(NCC3CCCO3)=C(C)C1=O)[C@@H]2COC(N)=O` (some centres not stated), which T/C [2] is on record?
A: Its T/C is -95 % of control and -10 % of control.

Q: What does the source list for `Clc1ccccc1C(Nc1cnccn1)Nc1cnccn1`?
A: T/C [3]: 58 % of control and 100 % of control; T/C [1]: 37 % of control and 74 % of control

Q: Which T/C (dose: 37.5 mg/kg/injection, schedule: Q04DX003 (sc), vehicle: saline) does the source give for `Nc1ncnc2c1ncn2C1OC(CO)C(O)C1O` (configuration not stated) here?
A: The T/C was 58 % of control and 110 % of control.

Q: What about the T/C (dose: 75.0 mg/kg/injection, schedule: Q04DX003 (sc), vehicle: saline) of the same compound?
A: Its T/C is 31 % of control and 65 % of control.

Q: For `CNCCN=c1ccc2c3c1c(O)c1c(O)ccc(=O)c1c3[nH]n2CCNCCO`, which T/C (dose: 6.25 mg/kg/injection, schedule: Q04DX003 (ip), vehicle: water) is on record?
A: The T/C was -56 % of control, 1 % of control, 3 % of control.

Q: What does the source list for `N#Cc1c(-c2ccc(F)cc2)c(-c2ccc(F)cc2)nn(CCO)c1=O`?
A: T/C [2]: 67 % of control and 102 % of control; T/C (dose: 100.0 mg/kg/injection, schedule: Q04DX003 (ip), vehicle: distilled water + Tween-80): 49 % of control, 87 % of control, 109 % of control; T/C (dose: 200.0 mg/kg/injection, schedule: Q04DX003 (ip), vehicle: distilled water + Tween-80): 44 % of control, 68 % of control, 74 % of control

Q: How did the T/C (dose: 1.1 mg/kg/injection, schedule: Q01DX010 (ip), vehicle: saline) turn out when `COc1cc([C@@H]2c3cc4c(cc3[C@@H](OC3OC5CO[C@@H](c6cccs6)OC5C(O)C3O)[C@H]3COC(=O)[C@H]23)OCO4)cc(OC)c1O` (some centres not stated) was run?
A: Its T/C is 47 % of control and 79 % of control.

Q: What about the T/C (dose: 2.19 mg/kg/injection, schedule: Q01DX010 (ip), vehicle: saline) of the same compound?
A: Its T/C is 28 % of control and 121 % of control.

Q: And the T/C (dose: 4.38 mg/kg/injection, schedule: Q01DX010 (ip), vehicle: saline)?
A: Its T/C is 11 % of control and 121 % of control.

Q: `CO[C@H](/C(C)=C/C=C/C(C)=C/c1coc(C)n1)[C@H](C)[C@H]1C[C@@H](O)[C@@]2(C)O[C@H]2/C=C/[C@@H](C)[C@@H]2C[C@@H](CC(=O)O2)C[C@H]2O[C@@H]2C(=O)O1` was tested. Which T/C (dose: 0.13 mg/kg/injection, schedule: Q04DX003 (sc), vehicle: Klucel (hydroxypropylcellulose) (HPC)) did it give?
A: Its T/C is 73 % of control and 99 % of control.

Q: For `C[C@]12CC[C@H](OC(=O)Cc3ccc(N(CCCl)CCCl)cc3)CC1=CC[C@@H]1[C@@H]2CC[C@]2(C)C(=O)CC[C@@H]12`, which T/C (dose: 125.0 mg/kg/injection, schedule: Q04DX003 (ip), vehicle: saline with Tween-80) is on record?
A: The T/C was -60 % of control, 10 % of control, 18 % of control.

Q: What about the T/C (dose: 250.0 mg/kg/injection, schedule: Q04DX003 (ip), vehicle: saline with Tween-80) of the same compound?
A: The T/C was -92 % of control, -3 % of control, 14 % of control.

Q: And the T/C (dose: 500.0 mg/kg/injection, schedule: Q04DX003 (ip), vehicle: saline with Tween-80)?
A: Its T/C is -100 % of control (2×) and 1 % of control.

Q: What about the T/C (dose: 1000.0 mg/kg/injection, schedule: Q04DX003 (ip), vehicle: saline with Tween-80) of the same compound?
A: Its T/C is -100 % of control (2×) and 1 % of control.

Q: For `COc1cc2c(c(OC)c1OC)-c1ccc(OC)c(=O)cc1[C@@H](NC(C)=O)CC2`, which T/C (dose: 2.0 mg/kg/injection, schedule: Q04DX003 (ip), vehicle: saline) is on record?
A: Its T/C is -27 % of control and 6 % of control (2×).

Q: Which T/C (dose: 100.0 mg/kg/injection, schedule: Q04DX003 (ip), vehicle: water) does the source give for `O=NNc1cnccn1` here?
A: The T/C was -100 % of control (2×) and -29 % of control.

Q: How did the T/C (dose: 50.0 mg/kg/injection, schedule: Q04DX003 (ip), vehicle: saline with Tween-80) turn out when `NC(Cc1ccc(N(CCCl)Cc2ccccc2)cc1)C(=O)O` (configuration not stated) was run?
A: The T/C was 17 % of control and 56 % of control.

Q: With `CC(O)CCC(=O)c1ccoc1` (configuration not stated) as the compound, how does the T/C (dose: 15.0 mg/kg/injection, schedule: Q01DX010 (ip), vehicle: saline) read?
A: The T/C was 119 % of control and 157 % of control.

Q: And the T/C (dose: 30.0 mg/kg/injection, schedule: Q01DX010 (ip), vehicle: saline)?
A: Its T/C is 92 % of control and 158 % of control.

Q: What does the source list for `O=C(Nc1ccccc1CCl)Nc1ccccc1CCl`?
A: T/C [3]: 51 % of control, 54 % of control, 92 % of control; T/C (dose: 300.0 mg/kg/injection, schedule: Q04DX003 (ip), vehicle: saline with Tween-80): 29 % of control, 46 % of control, 71 % of control; T/C [1]: 16 % of control, 45 % of control, 57 % of control

Q: With `C=Cc1cc(OC)c2c(c1)c(=O)oc1c2cc(OC)c2c(O)ccc(C3OC(C(C)O)C(O)C3O)c21` (configuration not stated) as the compound, how does the T/C (dose: 150.0 mg/kg/injection, schedule: Q04DX003 (ip), vehicle: Klucel (hydroxypropylcellulose) (HPC)) read?
A: The T/C was 14 % of control, 29 % of control, 49 % of control.

Q: Which T/C (dose: 75.0 mg/kg/injection, schedule: Q04DX003 (sc), vehicle: Klucel (hydroxypropylcellulose) (HPC)) does the source give for `O=S1(=O)CS(=O)(=O)OCCO1` here?
A: The T/C was 12 % of control and 59 % of control.

From PubChem BioAssay AID298 (DTP/NCI, 2004)
